Reference: the supplement of paper PMC3334620
In all, about 33,000 sequences were measured (“E-score (-0.5 to 0.5)”: median about -0.056, highest 2% from about 0.38 on). Some of the results follow.

target: Stb4 (UniProt P50104); assay: PBM E-score (8-mer binding enrichment) (E-score (-0.5 to 0.5)); higher = stronger / more preferred TF binding; most listed sequences are background and not binding sites; details: protein concentration: 200 nM; construct: GST-DNA-binding domain
Procedure, shortened: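 Using PURExpress in vitro transcription/translation, GST-tagged yeast transcription factors were made in full-length or DNA-binding-domain form. These were applied at about 100-200 nM to double-stranded universal all-10-mer Agilent arrays, and bound protein was detected with fluorescent anti-GST. Scans were normalised with masliner before the Universal PBM Analysis Suite assigned E-scores to ungapped eight-base words pooled with their reverse complements.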

Sequence	PBM E-score
CGAGAAGA	0.0362
CGAAATCA	0.185
AAGGCGAT	-0.271
CTGGGCGA	-0.138
ATCGCGAA	0.104
ACAAACGA	0.00615
CCAGCCGG	0.243
TCAGTGGA	-0.133
TCAAAAAA	0.0224
AGTGATAG	-0.33
TGCACGAA	-0.192
ACTGTTAT	-0.116
AAGTAACT	-0.0364
ATCTGCAT	-0.071
ATTGAAGC	0.0426
TATTTGAA	-0.036
CCAACACA	-0.127
AATCGCAT	-0.112
AAGGTCTA	-0.0592
ACTCATAC	0.082
CTTAGACA	-0.19
CCAGCGGC	-0.046

Sequence	PBM E-score
CTAGTAGC	0.12
GCCCAGAA	-0.0393
CCTTAGCG	-0.147
GCCTTGAC	-0.0679
AAGTAACA	-0.0722
AAAAAGGT	-0.106
ACTACGAG	-0.257
CCGCTGAA	-0.0126
CCTGCTCA	-0.278
AATGCGTG	-0.121
AATCCGGA	0.363
CGCCTCAA	-0.0881
CACTTTTA	-0.039
CGTGTGTA	0.0595
GTCGAGTA	-0.132
AACGCGAA	-0.0643
GTTAGACA	0.0418
AGTGAGTA	0.0499
ACGCCGCC	0.00985
GCGCGCAC	0.0782
CGGTGACG	0.0723
CTCATCTC	0.0314

Sequence	PBM E-score
ATAACTAT	-0.133
TACTAATA	-0.00352
GGCATGAC	-0.138
TGCGCGAA	-0.0295
TCCATCGA	-0.0527
GGTAGAGA	0.0223
AAATCGCG	-0.126
TCTACTAA	-0.047
CAATACCA	-0.204
GGCTCTTA	-0.0128
AACCTCAA	-0.173
CATATGCG	-0.0368
ATTTACCG	0.382
GTCCGGTA	0.191
CGTATTTC	0.0292
GATTCGAC	-0.233
ATGGATCC	0.213
TCGGAAGA	0.455
ATGGGGTA	-0.00817
CGAGGACG	0.258
GTACCAAA	-0.107
GGGTTGTA	0.0863

Sequence	PBM E-score
GCGGCGAA	0.145
GGGCTTAA	0.0507
TAGTAGAA	0.0104
ATTGTAGA	-0.132
ACTTGGTA	-0.265
ATACAGTG	-0.222
GGGGTACC	0.0937
CTGGGGAC	-0.245
AGTTATTC	0.0607
GTCGTGCA	-0.191
AAAGACTG	-0.256
AAGCCTTA	-0.0586
AGTGGTTA	-0.128
AGGGTAGG	-0.0936
CCATACGC	-0.113
ACGGAGCA	0.13
ACTTTACT	-0.0966
CAACTGGC	-0.151
CCTCCACC	-0.0886
ACGATCAA	-0.0309
GCTGACCC	0.0447
GAGATCGA	0.00738

Sequence	PBM E-score
CACCAATA	-0.152
GCAATTCA	-0.036
GAGCCGTA	0.191
CGCACGTC	-0.0639
ACCTGCTC	-0.00145
CCCCACTC	-0.214
AGCTGGCG	-0.107
TAGAGTGA	-0.0225
CATGTAAC	0.0377
AGACTAAT	-0.00603
ACCAGATA	-0.0575
GACATCTC	-0.0702
AAGAGGTA	0.0656
TATGCGAA	-0.048
CGTTGTAG	0.0224
AACGCTTA	-0.0958
CTTAGGCA	-0.209
ACCGTCAC	-0.0593
AAGTCTAT	-0.194
CATTTGGG	-0.186
CAAAGGAA	-0.00457
